B1: Caulobacter ParB omega fusion; a variant is named by its letters at X, in order, B8GW30 (parent)
chain: MESVVVGEPGMSEGRRGLGRGLSALLGEVDAAPAQAPGEQLGGSREAPIEILQRNPDQPRRTFREEDLEDLSNSIREKGVLQPILVRPSPDTAGEYQIVAGERAWRAAQRAGLKTVPIMVRELDDLAVLEIGIIENVQRADLNVLEEALSYKVLMEKFERTQENIAQTIGKSXSHVANXMRLLXLPDEVQSYLVSGELTAXHARAIAAAADPVALAKQIIEGGLSVRETEALARKAPNLSAGKSKGGRPPRVKDTDTQALESDLSSVLGLDVSIDHRGSTGTLTITYATLEQLDDLCNRLTRGI

The full ranking holds about 81,000 sequences; the median of “one-hybrid fitness for binding parS DNA” is about -0.17, and the highest 2% start at about 0.51. Some of the results follow.

This assay covers variants of B1. Kind of assay: one-hybrid fitness for binding parS DNA (scaled: cognate 1, non-cognate 0); higher = stronger binding. Particulars: with parS DNA site. Summed up: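 In E. coli USO, a HIS3 reporter with its site placed 19 bp from the promoter was used to select Caulobacter ParB variants randomised at four specificity codons. Growth lasted 48 hours at 37°C on histidine-free M9 containing 0.1 mM IPTG and 5 mM 3-AT. Fitness was taken as the log change in variant-to-wild-type read ratio from Illumina sequencing of pre- and post-selection plasmids, rescaled between the non-cognate and cognate sites.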
For TYDY, the “one-hybrid fitness for binding parS DNA” value is ≤ 0.2.

With PRNF, the “one-hybrid fitness for binding parS DNA” value was ≤ 0.2.

Turning to HIRA, the “one-hybrid fitness for binding parS DNA” value is ≤ 0.2.

On to WSRV, for which the “one-hybrid fitness for binding parS DNA” value was ≤ 0.2.

Regarding PLIG, the “one-hybrid fitness for binding parS DNA” value is ≤ 0.2.

Consider RFIL, for which the “one-hybrid fitness for binding parS DNA” value was ≤ 0.2.

For SSNN, the “one-hybrid fitness for binding parS DNA” value is ≤ 0.2.

With LYWC, the “one-hybrid fitness for binding parS DNA” value was ≤ 0.2.

On to CQYV, for which the “one-hybrid fitness for binding parS DNA” value is ≤ 0.2.

Take PGFT: the “one-hybrid fitness for binding parS DNA” value was ≤ 0.2.

For the variant IMAT, the “one-hybrid fitness for binding parS DNA” value is ≤ 0.2.

Consider RPAC, for which the “one-hybrid fitness for binding parS DNA” value is ≤ 0.2.

Regarding TNTG, the “one-hybrid fitness for binding parS DNA” value is ≤ 0.2.

In the case of LPSL, the “one-hybrid fitness for binding parS DNA” value is ≤ 0.2.

As to DLKC, the “one-hybrid fitness for binding parS DNA” value was ≤ 0.2.

For the variant THDT, the “one-hybrid fitness for binding parS DNA” value is ≤ 0.2.

Consider YAFT, for which the “one-hybrid fitness for binding parS DNA” value is ≤ 0.2.

As to IRYN, the “one-hybrid fitness for binding parS DNA” value was ≤ 0.2.

On to TAWV, for which the “one-hybrid fitness for binding parS DNA” value is ≤ 0.2.

Take IKST: the “one-hybrid fitness for binding parS DNA” value was ≤ 0.2.

Take VHFP: the “one-hybrid fitness for binding parS DNA” value is ≤ 0.2.

For NQYI, the “one-hybrid fitness for binding parS DNA” value was ≤ 0.2.

Turning to FKRT, the “one-hybrid fitness for binding parS DNA” value is ≤ 0.2.

Turning to KAGS, the “one-hybrid fitness for binding parS DNA” value was ≤ 0.2.

As to ARGE, the “one-hybrid fitness for binding parS DNA” value was ≤ 0.2.

Turning to NVSY, the “one-hybrid fitness for binding parS DNA” value was ≤ 0.2.

As to PFSG, the “one-hybrid fitness for binding parS DNA” value is ≤ 0.2.

Take HHTF: the “one-hybrid fitness for binding parS DNA” value is ≤ 0.2.

Take VFAI: the “one-hybrid fitness for binding parS DNA” value was ≤ 0.2.

For WVGS, the “one-hybrid fitness for binding parS DNA” value was ≤ 0.2.

For the variant WRKV, the “one-hybrid fitness for binding parS DNA” value was ≤ 0.2.

VRAS: the “one-hybrid fitness for binding parS DNA” value was ≤ 0.2.

With NQSC, the “one-hybrid fitness for binding parS DNA” value was ≤ 0.2.

As to AMNA, the “one-hybrid fitness for binding parS DNA” value was ≤ 0.2.

For HRAY, the “one-hybrid fitness for binding parS DNA” value is ≤ 0.2.

Consider QHLF, for which the “one-hybrid fitness for binding parS DNA” value was ≤ 0.2.

For the variant MFMS, the “one-hybrid fitness for binding parS DNA” value is ≤ 0.2.

Turning to EKLS, the “one-hybrid fitness for binding parS DNA” value is ≤ 0.2.

Consider QHSR, for which the “one-hybrid fitness for binding parS DNA” value is ≤ 0.2.

As for MRCM, the “one-hybrid fitness for binding parS DNA” value was ≤ 0.2.

As to DACR, the “one-hybrid fitness for binding parS DNA” value was ≤ 0.2.

In the case of VTDG, the “one-hybrid fitness for binding parS DNA” value was ≤ 0.2.

In the case of QKYW, the “one-hybrid fitness for binding parS DNA” value was ≤ 0.2.

Take HIHN: the “one-hybrid fitness for binding parS DNA” value is ≤ 0.2.

On to NTGS, for which the “one-hybrid fitness for binding parS DNA” value is ≤ 0.2.

As for ERLR, the “one-hybrid fitness for binding parS DNA” value was ≤ 0.2.

As to RQDG, the “one-hybrid fitness for binding parS DNA” value is 0.93.

As for RNYY, the “one-hybrid fitness for binding parS DNA” value is 0.297.

In the case of MKMC, the “one-hybrid fitness for binding parS DNA” value is ≤ 0.2.

LEDT: the “one-hybrid fitness for binding parS DNA” value was ≤ 0.2.

On to IRVC, for which the “one-hybrid fitness for binding parS DNA” value is ≤ 0.2.

On to ILLS, for which the “one-hybrid fitness for binding parS DNA” value was ≤ 0.2.

GQVI: the “one-hybrid fitness for binding parS DNA” value amounted to 0.347.

PRCC: the “one-hybrid fitness for binding parS DNA” value was ≤ 0.2.

As for EETG, the “one-hybrid fitness for binding parS DNA” value was ≤ 0.2.

Consider TAVI, for which the “one-hybrid fitness for binding parS DNA” value was ≤ 0.2.

As to KASW, the “one-hybrid fitness for binding parS DNA” value is ≤ 0.2.

WNEY: the “one-hybrid fitness for binding parS DNA” value is ≤ 0.2.

As for TEAG, the “one-hybrid fitness for binding parS DNA” value was ≤ 0.2.

Regarding ERRT, the “one-hybrid fitness for binding parS DNA” value is ≤ 0.2.

With VCLS, the “one-hybrid fitness for binding parS DNA” value was ≤ 0.2.

For MPQQ, the “one-hybrid fitness for binding parS DNA” value is ≤ 0.2.

On to HHEY, for which the “one-hybrid fitness for binding parS DNA” value is ≤ 0.2.

In the case of PNDC, the “one-hybrid fitness for binding parS DNA” value was ≤ 0.2.

For KTRR, the “one-hybrid fitness for binding parS DNA” value is ≤ 0.2.

For NRSQ, the “one-hybrid fitness for binding parS DNA” value was ≤ 0.2.

Regarding GAEC, the “one-hybrid fitness for binding parS DNA” value was ≤ 0.2.

With FRRR, the “one-hybrid fitness for binding parS DNA” value is ≤ 0.2.

On to INRR, for which the “one-hybrid fitness for binding parS DNA” value is ≤ 0.2.

HVPS: the “one-hybrid fitness for binding parS DNA” value is ≤ 0.2.

As to HCQT, the “one-hybrid fitness for binding parS DNA” value was ≤ 0.2.

Turning to CTYY, the “one-hybrid fitness for binding parS DNA” value was ≤ 0.2.

On to NNIT, for which the “one-hybrid fitness for binding parS DNA” value was ≤ 0.2.

In the case of HQRI, the “one-hybrid fitness for binding parS DNA” value was ≤ 0.2.

For RETE, the “one-hybrid fitness for binding parS DNA” value was ≤ 0.2.

With QVKP, the “one-hybrid fitness for binding parS DNA” value was ≤ 0.2.

The values above are taken from a collection of fitness landscapes (doi:10.1016/j.celrep.2020.107928).
